The values that follow come from the supplement of paper PMC4604168 (melanoma cell lines).

Molecules are shown by their SMILES. The list shows a part of the results. Many values rest on one well or one pass, so single values are uncertain.
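Note: cells treated in 1,536-well plates, then fixed and DAPI-stained, with nuclei counted from automated high-throughput microscope images.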

This test relates to A101D. In words: cell count relative to DMSO control; melanoma cells; higher = more viable cells. To be noted: library dose: standard library concentration; 72 h.
Molecule `Cn1nnc2c(C(N)=O)ncn2c1=O` [temozolomide] + O=C(CCCCCCC(=O)Nc1ccccc1)NO [vorinostat] (first compound 10 µM, partner dose 0.4 µM) showed a cell count of 77.4%.
`Cn1nnc2c(C(N)=O)ncn2c1=O` [temozolomide] + NC(=O)Nc1cc(-c2cccc(F)c2)sc1C(=O)N[C@H]1CCCNC1 [AZD7762] (first compound 10 µM, partner dose 0.1 µM) showed a cell count of 68.1%.
The same measure for `O=C(O)c1ccc2c(c1)nc(Nc1cccc(Cl)c1)c1ccncc12` + Nc1cccc2c1CN(C1CCC(=O)NC1=O)C2=O [lenalidomide] (first compound 2 µM, partner dose 5 µM): 83.6%; for `O=C(Nc1cc(C(F)(F)F)cc(C(F)(F)F)c1)c1cc(Cl)ccc1O` + Cc1cc(Nc2cc(N3CCN(C)CC3)nc(/C=C/c3ccccc3)n2)n[nH]1 [ENMD2076] (first compound 0.08 µM, partner dose 0.2 µM): 81.1%.
The molecule `O=C(O)[C@@H]1[O][Sb](=[O])([O][Sb]2(=[O])[O][C@H]([C@H](O)CO)[C@H](O)[C@H](C(=O)O)[O]2)[O][C@H]([C@H](O)CO)[C@@H]1O` (some centres undefined) [stibogluconate] + CS(=O)(=O)CCNCc1ccc(-c2ccc3ncnc(Nc4ccc(OCc5cccc(F)c5)c(Cl)c4)c3c2)o1 [lapatinib] (first compound 10 µM, partner dose 4 µM) displayed a cell count of 60%.
With `Cn1nnc2c(C(N)=O)ncn2c1=O` [temozolomide] + C[C@@H]1CCN(C(=O)CC#N)C[C@@H]1N(C)c1ncnc2[nH]ccc12 [CP690550] (first compound 10 µM, partner dose 5 µM) the figure was 75.1%; with `O=C(Nc1cc(C(F)(F)F)cc(C(F)(F)F)c1)c1cc(Cl)ccc1O` + NCC(=O)Nc1ccc(-n2nc(C(F)(F)F)cc2-c2ccc3c(ccc4ccccc43)c2)cc1 [OSU03012] (first compound 0.08 µM, partner dose 5 µM), 97.3%; with `O=C(Nc1cc(C(F)(F)F)cc(C(F)(F)F)c1)c1cc(Cl)ccc1O` + Cc1nc(Nc2ncc(C(=O)Nc3c(C)cccc3Cl)s2)cc(N2CCN(CCO)CC2)n1 [dasatanib] (first compound 0.08 µM, partner dose 0.02 µM), 77%.
With `O=C(Nc1cc(C(F)(F)F)cc(C(F)(F)F)c1)c1cc(Cl)ccc1O` + COc1ccc(Cl)c(Nc2nc3ccccc3nc2NS(=O)(=O)c2cccc(NC(=O)C(C)(C)N)c2)c1 [XL147] (first compound 0.08 µM, partner dose 4 µM) the figure was 87.7%.
As for `Cc1cc(N2CCOCC2)cc2[nH]c(-c3c(NC[C@@H](O)c4cccc(Cl)c4)cc[nH]c3=O)nc12` + C[C@@H]1CCN(C(=O)CC#N)C[C@@H]1N(C)c1ncnc2[nH]ccc12 [CP690550] (first compound 1 µM, partner dose 5 µM), the cell count was 79.6%.
On to `O=C(Nc1cc(C(F)(F)F)cc(C(F)(F)F)c1)c1cc(Cl)ccc1O` + O=C(CCCCCCC(=O)Nc1ccccc1)NO [vorinostat] (first compound 0.08 µM, partner dose 0.4 µM), for which the cell count was 68.3%.
`O=C(O)[C@@H]1[O][Sb](=[O])([O][Sb]2(=[O])[O][C@H]([C@H](O)CO)[C@H](O)[C@H](C(=O)O)[O]2)[O][C@H]([C@H](O)CO)[C@@H]1O` (some centres undefined) [stibogluconate] + Cc1nc(Nc2ncc(C(=O)Nc3c(C)cccc3Cl)s2)cc(N2CCN(CCO)CC2)n1 [dasatanib] (first compound 10 µM, partner dose 0.02 µM) registered a cell count of 53.8%.
Regarding `O=C(O)[C@@H]1[O][Sb](=[O])([O][Sb]2(=[O])[O][C@H]([C@H](O)CO)[C@H](O)[C@H](C(=O)O)[O]2)[O][C@H]([C@H](O)CO)[C@@H]1O` (some centres undefined) [stibogluconate] + Nc1ccn([C@@H]2O[C@H](CO)[C@@H](O)C2(F)F)c(=O)n1 [gemcitabine] (first compound 10 µM, partner dose 0.002 µM), the cell count came out at 70.9%.
With `O=C(Nc1cc(C(F)(F)F)cc(C(F)(F)F)c1)c1cc(Cl)ccc1O` + Cc1cc(N2CCOCC2)cc2[nH]c(-c3c(NC[C@@H](O)c4cccc(Cl)c4)cc[nH]c3=O)nc12 [BMS536924] (first compound 0.08 µM, partner dose 1 µM) the figure was 84.2%.
